In publication PMC9911399, “Two distinct binding modes provide the RNA-binding protein RbFox with extraordinary sequence specificity”:
Positions count from the first letter of the chain named. The list shows a part of the results.

B1: UACGUGA (DNA:RNA)
RNA: GGGAGACCGGAAUUCAGAUUGUCCUACGUGAUUAAAUCCCGUCGUAGCCACCA
DNA 1: CAATCTGAATTCCGGTCTCCC
DNA 2: TGGTGGCTACGACGGGATT
B2: CAUCAAG (DNA:RNA)
RNA: B1 RNA with U25C, C27U, G28C, U29A, G30A, A31G
DNA 1: CAATCTGAATTCCGGTCTCCC
DNA 2: TGGTGGCTACGACGGGATT
B3: GUCCUCU (DNA:RNA)
RNA: B1 RNA with U25G, A26U, G28C, G30C, A31U
DNA 1: CAATCTGAATTCCGGTCTCCC
DNA 2: TGGTGGCTACGACGGGATT
B4: CAAAAGC (DNA:RNA)
RNA: B1 RNA with U25C, C27A, G28A, U29A, A31C
DNA 1: CAATCTGAATTCCGGTCTCCC
DNA 2: TGGTGGCTACGACGGGATT
B5: GACGAUC (DNA:RNA)
RNA: B1 RNA with U25G, U29A, G30U, A31C
DNA 1: CAATCTGAATTCCGGTCTCCC
DNA 2: TGGTGGCTACGACGGGATT
B6: CCGUGGU (DNA:RNA)
RNA: B1 RNA with U25C, A26C, C27G, G28U, U29G, A31U
DNA 1: CAATCTGAATTCCGGTCTCCC
DNA 2: TGGTGGCTACGACGGGATT
B7: CAAGCCC (DNA:RNA)
RNA: B1 RNA with U25C, C27A, U29C, G30C, A31C
DNA 1: CAATCTGAATTCCGGTCTCCC
DNA 2: TGGTGGCTACGACGGGATT
B8: GCUCGCA (DNA:RNA)
RNA: B1 RNA with U25G, A26C, C27U, G28C, U29G, G30C
DNA 1: CAATCTGAATTCCGGTCTCCC
DNA 2: TGGTGGCTACGACGGGATT
B9: AGUGUAU (DNA:RNA)
RNA: B1 RNA with U25A, A26G, C27U, G30A, A31U
DNA 1: CAATCTGAATTCCGGTCTCCC
DNA 2: TGGTGGCTACGACGGGATT
B10: UUGUAAC (DNA:RNA)
RNA: B1 RNA with A26U, C27G, G28U, U29A, G30A, A31C
DNA 1: CAATCTGAATTCCGGTCTCCC
DNA 2: TGGTGGCTACGACGGGATT
B11: UUCGAAU (DNA:RNA)
RNA: B1 RNA with A26U, U29A, G30A, A31U
DNA 1: CAATCTGAATTCCGGTCTCCC
DNA 2: TGGTGGCTACGACGGGATT
B12: UGUGUAC (DNA:RNA)
RNA: B1 RNA with A26G, C27U, G30A, A31C
DNA 1: CAATCTGAATTCCGGTCTCCC
DNA 2: TGGTGGCTACGACGGGATT
B13: UACAGAA (DNA:RNA)
RNA: B1 RNA with G28A, U29G, G30A
DNA 1: CAATCTGAATTCCGGTCTCCC
DNA 2: TGGTGGCTACGACGGGATT
B14: UAUAGAG (DNA:RNA)
RNA: B1 RNA with C27U, G28A, U29G, G30A, A31G
DNA 1: CAATCTGAATTCCGGTCTCCC
DNA 2: TGGTGGCTACGACGGGATT
B15: UAAAAGU (DNA:RNA)
RNA: B1 RNA with C27A, G28A, U29A, A31U
DNA 1: CAATCTGAATTCCGGTCTCCC
DNA 2: TGGTGGCTACGACGGGATT
B16: UCGCCGC (DNA:RNA)
RNA: B1 RNA with A26C, C27G, G28C, U29C, A31C
DNA 1: CAATCTGAATTCCGGTCTCCC
DNA 2: TGGTGGCTACGACGGGATT
B17: CGUCGUU (DNA:RNA)
RNA: GGGAGACCGGAAUUCAGAUUGUCCCGUCGUUUUAAAUCCCGUCGUAGCCACCA
DNA 1: CAATCTGAATTCCGGTCTCCC
DNA 2: TGGTGGCTACGACGGGATT
B18: UGAGAGC (DNA:RNA)
RNA: B1 RNA with A26G, C27A, U29A, A31C
DNA 1: CAATCTGAATTCCGGTCTCCC
DNA 2: TGGTGGCTACGACGGGATT
B19: UACGGCU (DNA:RNA)
RNA: B1 RNA with U29G, G30C, A31U
DNA 1: CAATCTGAATTCCGGTCTCCC
DNA 2: TGGTGGCTACGACGGGATT
B20: UGGGGAA (DNA:RNA)
RNA: B1 RNA with A26G, C27G, U29G, G30A
DNA 1: CAATCTGAATTCCGGTCTCCC
DNA 2: TGGTGGCTACGACGGGATT
B21: AACUUUA (DNA:RNA)
RNA: B1 RNA with U25A, G28U, G30U
DNA 1: CAATCTGAATTCCGGTCTCCC
DNA 2: TGGTGGCTACGACGGGATT
B22: UCGCUUU (DNA:RNA)
RNA: B17 RNA with C25U, G26C, U27G, G29U
DNA 1: CAATCTGAATTCCGGTCTCCC
DNA 2: TGGTGGCTACGACGGGATT
B23: UAGCGCA (DNA:RNA)
RNA: B1 RNA with C27G, G28C, U29G, G30C
DNA 1: CAATCTGAATTCCGGTCTCCC
DNA 2: TGGTGGCTACGACGGGATT
B24: ACACGCC (DNA:RNA)
RNA: B17 RNA with C25A, G26C, U27A, U30C, U31C
DNA 1: CAATCTGAATTCCGGTCTCCC
DNA 2: TGGTGGCTACGACGGGATT
B25: AGUUCGU (DNA:RNA)
RNA: B17 RNA with C25A, C28U, G29C, U30G
DNA 1: CAATCTGAATTCCGGTCTCCC
DNA 2: TGGTGGCTACGACGGGATT
B26: AGAAUCA (DNA:RNA)
RNA: B1 RNA with U25A, A26G, C27A, G28A, G30C
DNA 1: CAATCTGAATTCCGGTCTCCC
DNA 2: TGGTGGCTACGACGGGATT
B27: AUUGAUA (DNA:RNA)
RNA: B17 RNA with C25A, G26U, C28G, G29A, U31A
DNA 1: CAATCTGAATTCCGGTCTCCC
DNA 2: TGGTGGCTACGACGGGATT
B28: CAUCGGC (DNA:RNA)
RNA: B17 RNA with G26A, U30G, U31C
DNA 1: CAATCTGAATTCCGGTCTCCC
DNA 2: TGGTGGCTACGACGGGATT
B29: CGCGUGC (DNA:RNA)
RNA: B1 RNA with U25C, A26G, A31C
DNA 1: CAATCTGAATTCCGGTCTCCC
DNA 2: TGGTGGCTACGACGGGATT
B30: UCAGAAG (DNA:RNA)
RNA: B1 RNA with A26C, C27A, U29A, G30A, A31G
DNA 1: CAATCTGAATTCCGGTCTCCC
DNA 2: TGGTGGCTACGACGGGATT
B31: UUGCGAG (DNA:RNA)
RNA: B17 RNA with C25U, G26U, U27G, U30A, U31G
DNA 1: CAATCTGAATTCCGGTCTCCC
DNA 2: TGGTGGCTACGACGGGATT

Each binder was assayed against T1, RBFOX1 RRM RbFoxmut (Fox-RRM*) (Homo sapiens, UniProt Q9NWB1 109-208, R118D;E147R;N151S;E152T) (assay: EMSA; HiTS-Eq, 1 nM pool, 10 min; buffer printed only for the single-RNA assays: 10 mM Tris pH 7.5, 150 mM NaCl, 3.4 mM EDTA, 0.001% NP-40, 30 C). Details: tags: His6 N-terminal (pET28a); label: 5' 32P.
T1 sequence: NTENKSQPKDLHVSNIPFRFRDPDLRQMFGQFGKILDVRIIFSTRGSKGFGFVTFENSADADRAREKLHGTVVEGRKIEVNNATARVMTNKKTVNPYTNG
How it was run: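 Purified wild-type or mutant RbFox RRM at increasing concentrations was equilibrated with 1 nM of 5′-radiolabelled RNA carrying 7 randomized nucleotides for 10 min in 50 µL. Unbound RNA was separated by 8% native PAGE and sequenced. Relative association constants came from read-count changes of each RNA species compared with the control reaction, normalised to the cognate motif.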
For B1, the binding signal was 0.0934 KA relative to UGCAUGU.
In the case of B2, the binding signal is reported as 0.112 KA relative to UGCAUGU.
For B3, the binding signal was 0.0929 KA relative to UGCAUGU.
B4 was tested, and the binding signal was 0.0716 KA relative to UGCAUGU.
B5 was tested, and the binding signal was 0.0463 KA relative to UGCAUGU.
B6 was tested, and the binding signal was 0.1 KA relative to UGCAUGU.
In the case of B7, the binding signal is reported as 0.083 KA relative to UGCAUGU.
In the case of B8, the binding signal is reported as 0.123 KA relative to UGCAUGU.
In the case of B9, the binding signal is reported as 0.162 KA relative to UGCAUGU.
In the case of B10, the binding signal is reported as 0.115 KA relative to UGCAUGU.
For B11, the binding signal was 0.103 KA relative to UGCAUGU.
With B12 the binding signal was 0.129 KA relative to UGCAUGU.
For B13, the binding signal was 0.1 KA relative to UGCAUGU.
With B14 the binding signal was 0.117 KA relative to UGCAUGU.
For B15, the binding signal was 0.058 KA relative to UGCAUGU.
With B16 the binding signal was 0.0954 KA relative to UGCAUGU.
B17 was tested, and the binding signal was 0.108 KA relative to UGCAUGU.
In the case of B18, the binding signal is reported as 0.0841 KA relative to UGCAUGU.
For B19, the binding signal was 0.101 KA relative to UGCAUGU.
With B20 the binding signal was 0.142 KA relative to UGCAUGU.
B21 was tested, and the binding signal was 0.112 KA relative to UGCAUGU.
For B22, the binding signal was 0.0726 KA relative to UGCAUGU.
B23 was tested, and the binding signal was 0.124 KA relative to UGCAUGU.
For B24, the binding signal was 0.109 KA relative to UGCAUGU.
In the case of B25, the binding signal is reported as 0.14 KA relative to UGCAUGU.
With B26 the binding signal was 0.203 KA relative to UGCAUGU.
With B27 the binding signal was 0.114 KA relative to UGCAUGU.
With B28 the binding signal was 0.0843 KA relative to UGCAUGU.
B29 was tested, and the binding signal was 0.124 KA relative to UGCAUGU.
B30 was tested, and the binding signal was 0.106 KA relative to UGCAUGU.
In the case of B31, the binding signal is reported as 0.15 KA relative to UGCAUGU.
